These results are taken from the antibiotic and cytotoxicity screens of Wong et al. (2023).

One test relates to HSkMC. As to the kind of experiment: cytotoxicity call (relative viability < 0.9). As to conditions: 10 µM.
A further test deals with HepG2. As to the kind of experiment: cytotoxicity call (relative viability < 0.9). The conditions noted are these: 10 µM.
The test system of another test is S. aureus RN4220. As to the kind of experiment: growth inhibition call (relative growth <= 0.2). As to conditions: 50 µM.

The other results are listed elsewhere or left out.

In the case of `C[C@H](CO)N1C[C@H](C)[C@H](CN(C)Cc2ccc3c(c2)OCO3)Oc2ccc(NC(=O)Nc3ccc(C(F)(F)F)cc3)cc2CC1=O`, the cytotoxicity call with HSkMC was “inactive”. Further, in the test on HepG2, the cytotoxicity call was “active”. In the test on S. aureus RN4220, the growth inhibition call is “inactive”.
On to `C[C@H](CO)N1C[C@H](C)[C@H](CN(C)C(=O)Nc2cccc3ccccc23)Oc2ccc(NC(=O)Cc3cn(C)c4ccccc34)cc2C1=O`, for which the cytotoxicity call in the test with HSkMC and in the test with HepG2 was “inactive” each time. In addition, the growth inhibition call with S. aureus RN4220 is “inactive”.
On to `COc1ccc(S(=O)(=O)Nc2cccc3c2O[C@H](CN(C)Cc2ccc(Cl)c(Cl)c2)[C@H](C)CN([C@@H](C)CO)C3=O)cc1`, for which the cytotoxicity call in the test with HSkMC was “inactive”. The cytotoxicity call in the test on HepG2 was “active”. In addition, the growth inhibition call with S. aureus RN4220 is “inactive”.
On to `O=C(C[C@@H]1CC[C@@H](NS(=O)(=O)c2ccc(F)cc2)[C@@H](CO)O1)NCc1ccc(Cl)c(Cl)c1`, for which the cytotoxicity call in the test with HSkMC and in the test with HepG2 was “inactive” each time. In addition, the growth inhibition call in the test with S. aureus RN4220 was “inactive”.
`C[C@H]1CN([C@@H](C)CO)C(=O)c2cc(/C=C/c3ccccc3)cnc2O[C@H]1CN(C)C(=O)C1CCOCC1`: the cytotoxicity call with HSkMC and with HepG2 was “inactive” each time. The growth inhibition call in the test with S. aureus RN4220 is “inactive”.
For `Cc1[nH]c2ccccc2c1C(=O)CSc1ccc(Cl)cc1`, the cytotoxicity call with HSkMC and in the test on HepG2 was “inactive” in each case. The growth inhibition call in the test on S. aureus RN4220 is “inactive”.
Take `COCC#Cc1ccc2c(c1)O[C@@H](CN(C)C(=O)C1CCCCC1)[C@@H](C)CN([C@@H](C)CO)S2(=O)=O`: the cytotoxicity call in the test on HSkMC and in the test with HepG2 was “inactive” throughout. In the test with S. aureus RN4220, the growth inhibition call was “inactive”.
With `CC(C)(C)[S@@+]([O-])N1Cc2cc(C(=O)NCc3ccc4c(c3)OCO4)nc(-c3ccc(-c4ccccc4)cc3)c2[C@H]1CCO`, the cytotoxicity call with HSkMC and in the test on HepG2 was “inactive” throughout. In the test with S. aureus RN4220, the growth inhibition call is “inactive”.
Turning to `NCc1ccc(-c2nccs2)cc1`, the cytotoxicity call in the test with HSkMC and with HepG2 was “inactive” each time. In addition, the growth inhibition call in the test with S. aureus RN4220 is “inactive”.
On to `NCC[C@@H]1CC[C@H](NC(=O)c2ccccc2F)[C@H](CO)O1`, for which the cytotoxicity call with HSkMC and in the test on HepG2 was “inactive” in each case. For the same compound, the growth inhibition call with S. aureus RN4220 was “inactive”.
For `CC(C)C#Cc1cnc2c(c1)C(=O)N([C@H](C)CO)C[C@H](C)[C@H](CN(C)C(=O)c1ccc3c(c1)OCO3)O2`, the cytotoxicity call in the test on HSkMC and with HepG2 was “inactive” each time. In addition, in the test on S. aureus RN4220, the growth inhibition call is “inactive”.
As for `CC(C)NC(=O)Nc1ccc2c(c1)C(=O)N([C@@H](C)CO)C[C@H](C)[C@H](CN(C)Cc1ccccc1)OCCCC[C@H](C)O2`, the cytotoxicity call in the test with HSkMC and in the test on HepG2 was “inactive” in each case. Also, in the test with S. aureus RN4220, the growth inhibition call is “inactive”.
As for `COc1ccc(CN(C)C[C@@H]2OCCCC[C@H](C)Oc3ccc(NC(=O)Nc4ccc(F)cc4)cc3C(=O)N([C@@H](C)CO)C[C@@H]2C)cc1`, the cytotoxicity call with HSkMC is “inactive”. Also, the cytotoxicity call with HepG2 was “active”. For the same compound, the growth inhibition call in the test on S. aureus RN4220 is “inactive”.
In the case of `COc1ccc(NC(=O)Nc2ccc3c(c2)C(=O)N([C@H](C)CO)C[C@H](C)[C@@H](CN(C)S(=O)(=O)c2c(C)noc2C)OCCCC[C@@H](C)O3)cc1`, the cytotoxicity call in the test with HSkMC and with HepG2 was “inactive” throughout. Further, the growth inhibition call in the test with S. aureus RN4220 is “inactive”.
With `C[C@H](CO)N1C[C@H](C)[C@H](CN(C)Cc2ccncc2)Oc2ccc(NS(=O)(=O)c3ccc(F)cc3)cc2CC1=O`, the cytotoxicity call with HSkMC and in the test with HepG2 was “inactive” in each case. Also, in the test on S. aureus RN4220, the growth inhibition call was “inactive”.
In the case of `COc1ccc(NC(=O)N(C)C[C@@H]2OCc3ccccc3-c3c(n(C)c4ccccc34)C(=O)N([C@H](C)CO)C[C@H]2C)cc1`, the cytotoxicity call with HSkMC and in the test with HepG2 was “inactive” in each case. For the same compound, the growth inhibition call in the test with S. aureus RN4220 was “inactive”.
Regarding `COCCNC(=O)C[C@H]1CC[C@H]2[C@@H](COC[C@@H](O)CN2C(=O)Nc2ccccc2OC)O1`, the cytotoxicity call in the test with HSkMC and with HepG2 was “inactive” in each case. Also, the growth inhibition call in the test on S. aureus RN4220 is “inactive”.
As to `Cc1cccc(S(=O)(=O)N2C[C@H](O)COC[C@@H]3O[C@@H](CC(=O)N4CCN(C)CC4)CC[C@H]32)c1`, the cytotoxicity call with HSkMC and in the test with HepG2 was “inactive” in each case. Also, the growth inhibition call with S. aureus RN4220 was “inactive”.
As to `C[C@@H]1CCCCO[C@@H](CN(C)C(=O)Nc2ccc(F)cc2)[C@H](C)CN([C@H](C)CO)C(=O)c2cc(NC(=O)Cc3ccccc3)ccc2O1`, the cytotoxicity call with HSkMC and in the test with HepG2 was “inactive” throughout. In addition, the growth inhibition call in the test with S. aureus RN4220 is “inactive”.
In the case of `CNC(=O)[C@H]1O[C@H](n2cnc3c(NCc4cccc(I)c4)nc(Cl)nc32)[C@@H](O)[C@@H]1O`, the cytotoxicity call with HSkMC and in the test with HepG2 was “inactive” each time. Further, the growth inhibition call with S. aureus RN4220 is “inactive”.
For the compound `C[C@@H](NS(=O)(=O)c1cccc(F)c1)C(=O)O`, the cytotoxicity call with HSkMC and in the test on HepG2 was “inactive” throughout. Moreover, the growth inhibition call with S. aureus RN4220 was “inactive”.
Turning to `C[C@H](CO)N1C[C@H](C)[C@@H](CN(C)S(=O)(=O)c2cn(C)cn2)Oc2ccc(NS(=O)(=O)c3cn(C)cn3)cc2C1=O`, the cytotoxicity call in the test on HSkMC and with HepG2 was “inactive” each time. Further, the growth inhibition call in the test on S. aureus RN4220 is “inactive”.
As for `O=C(C[C@@H]1CC[C@@H]2[C@H](COC[C@@H](O)CN2S(=O)(=O)c2ccc(Cl)cc2)O1)NCCN1CCCCC1`, the cytotoxicity call in the test with HSkMC and in the test with HepG2 was “inactive” each time. Besides, the growth inhibition call in the test on S. aureus RN4220 was “inactive”.
For `O=C1O[C@H](c2ccccc2)[C@H](c2ccccc2)N2[C@H]1[C@@H](C(=O)NC[C@H](O)c1ccccc1)[C@]1(C(=O)Nc3ccc(C#CC4(O)CCCCCC4)cc31)[C@H]2c1ccc(O)cc1`, the cytotoxicity call with HSkMC and in the test on HepG2 was “inactive” throughout. Also, in the test on S. aureus RN4220, the growth inhibition call is “inactive”.
In the case of `OC1(c2ccc(Cl)c(C(F)(F)F)c2)CCN(CCCC(c2ccc(F)cc2)c2ccc(F)cc2)CC1`, the cytotoxicity call in the test on HSkMC (human skeletal muscle cells) and in the test on HepG2 was “active” in each case. For the same compound, the growth inhibition call in the test on S. aureus RN4220 was “inactive”.
For the compound `Cc1cc(C(=O)Nc2cccc3c2O[C@H](CN(C)Cc2ccc4c(c2)OCO4)[C@@H](C)CN([C@@H](C)CO)C3=O)n(C)n1`, the cytotoxicity call with HSkMC and with HepG2 was “inactive” throughout. In the test on S. aureus RN4220, the growth inhibition call was “inactive”.
With `CC(=CC(=O)OCCCCCCCCC(=O)O)CC1OCC(CC2OC2C(C)C(C)O)C(O)C1O` (stereo unspecified), the cytotoxicity call with HSkMC and with HepG2 was “inactive” each time. Also, the growth inhibition call with S. aureus RN4220 was “active”.
